Assay results from the supplement of paper PMC4967469.

Legend:
Test in all cases: Viability of human cancer cell lines after 72 h of drug (GDSC screen)
XMD15-27 = compound: C=CC(=O)Nc1ccc(C(=O)c2sc(Nc3ccc(N4CCN(C)CC4)cc3OC)nc2N)cc1 [XMD15-27]; details: top dose 10.24 µM; top dose inferred
Method: (§1)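 Human cancer cell lines in 384-well plates, medium with 10% serum, drug for 72 h over a 256-fold dose range (nine 2-fold or five 4-fold steps up to the top dose). Adherent lines were fixed and stained with the nucleic acid dye Syto60, suspension lines read with resazurin; signal relative to control wells, capped at 0 and 100%. One two-parameter sigmoid per drug and line, fitted in a mixed model over all curves with the slope shared within a line.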

SL 0101-1 = compound: CC(=O)O[C@@H]1[C@@H](OC(C)=O)[C@@H](O)[C@H](Oc2c(-c3ccc(O)cc3)oc3cc(O)cc(O)c3c2=O)O[C@H]1C [SL 0101-1]; details: top dose 10 µM; top dose inferred
Method: as §1

Temsirolimus = compound: CO[C@H]1C[C@@H]2CC[C@@H](C)[C@@](O)(O2)C(=O)C(=O)N2CCCC[C@H]2C(=O)O[C@H]([C@H](C)C[C@@H]2CC[C@@H](OC(=O)C(C)(CO)CO)[C@H](OC)C2)CC(=O)[C@H](C)/C=C(\C)[C@@H](O)[C@@H](OC)C(=O)[C@H](C)C[C@H](C)/C=C/C=C/C=C/1C [Temsirolimus]; details: top dose 0.2 µM
Method: as §1

Row | Cell Line | AUC (XMD15-27) | IC50 (XMD15-27) [nM] | AUC (SL 0101-1) | IC50 (SL 0101-1) [nM] | AUC (Temsirolimus) | IC50 (Temsirolimus) [nM]
1 | BHT-101 (thyroid, adherent) | 0.985 | > 10200 | 0.973 | > 10000 | 0.781 | 85.7
2 | BICR10 (head and neck, adherent) | 0.975 | > 10200 | 0.983 | > 10000 | 0.603 | 25.1
3 | BICR22 (head and neck, adherent) | 0.983 | > 10200 | 0.968 | > 10000 | 0.492 | 11.8
4 | BICR78 (head and neck, adherent) | 0.983 | > 10200 | 0.975 | > 10000 | 0.8 | 115
5 | BL-41 (Burkitt lymphoma, suspension) | 0.927 | 9810 | 0.992 | > 10000 | 0.479 | 11.1
6 | BT-20 (breast, adherent) | 0.982 | > 10200 | 0.98 | > 10000 | 0.821 | 154
7 | BT-474 (breast, adherent) | 0.986 | > 10200 | 0.986 | > 10000 | 0.888 | > 200
8 | BT-483 (breast, adherent) | 0.977 | > 10200 | 0.929 | > 10000 | 0.753 | 134
9 | BV-173 (chronic myeloid leukaemia, suspension) | 0.924 | > 10200 | 0.939 | > 10000 | 0.512 | 13.4
10 | Becker (glioma, adherent) | 0.984 | > 10200 | 0.931 | > 10000 | 0.695 | 47.5
11 | C2BBe1 (large intestine, adherent) | 0.986 | > 10200 | 0.933 | > 10000 | 0.837 | 161
12 | C3A (liver, adherent) | 0.988 | > 10200 | 0.975 | > 10000 | 0.981 | > 200
13 | C32 (melanoma, adherent) | 0.987 | > 10200 | 0.975 | > 10000 | 0.817 | 121
14 | C-4-I (cervix, adherent) | 0.986 | > 10200 | 0.986 | > 10000 | 0.857 | 186
15 | C-33-A (cervix, adherent) | 0.979 | > 10200 | 0.982 | > 10000 | 0.675 | 38.5
16 | CA46 (Burkitt lymphoma, suspension) | 0.942 | > 10200 | 0.984 | > 10000 | 0.893 | > 200
17 | CADO-ES1 (Ewing sarcoma, suspension) | 0.963 | > 10200 | 0.972 | > 10000 | 0.942 | > 200
18 | CAL-12T (non-small cell lung carcinoma, adherent) | 0.953 | > 10200 | 0.974 | > 10000 | 0.778 | 91.1
19 | CAL-27 (head and neck, adherent) | 0.986 | > 10200 | 0.986 | > 10000 | 0.759 | 71.3
20 | CAL-29 (bladder, adherent) | 0.985 | > 10200 | 0.97 | > 10000 | 0.405 | 6.71
21 | CAL-33 (head and neck, adherent) | 0.982 | > 10200 | 0.974 | > 10000 | 0.402 | 6.74

Row | Cell Line | AUC (XMD15-27) | IC50 (XMD15-27) [nM] | AUC (SL 0101-1) | IC50 (SL 0101-1) [nM] | AUC (Temsirolimus) | IC50 (Temsirolimus) [nM]
22 | CAL-39 (cervix, adherent) | 0.986 | > 10200 | 0.984 | > 10000 | 0.628 | 28.6
23 | CAL-51 (breast, adherent) | 0.991 | > 10200 | 0.938 | > 10000 | 0.896 | 189
24 | CAL-72 (osteosarcoma, adherent) | 0.984 | > 10200 | 0.886 | > 10000 | 0.529 | 15.2
25 | CAL-78 (chondrosarcoma, adherent) | 0.986 | > 10200 | 0.986 | > 10000 | 0.892 | > 200
26 | NCI-H1105 (small cell lung carcinoma, suspension) | – | – | 0.988 | > 10000 | 0.94 | > 200
27 | NCI-H1341 (small cell lung carcinoma, suspension) | – | – | 0.991 | > 10000 | 0.922 | > 200
28 | NCI-N87 (stomach, adherent) | – | – | 0.965 | > 10000 | 0.755 | 97.4
29 | OCI-LY7 (B-cell lymphoma, suspension) | – | – | 0.983 | > 10000 | 0.112 | 1.34
30 | PWR-1E (prostate, adherent) | – | – | 0.986 | > 10000 | 0.895 | > 200
31 | RCH-ACV (B-cell leukaemia, suspension) | – | – | 0.992 | > 10000 | 0.741 | 52.4
32 | RH-18 (rhabdomyosarcoma, adherent) | – | – | 0.976 | > 10000 | 0.925 | > 200
33 | SCC90 (head and neck, adherent) | – | – | 0.981 | > 10000 | 0.932 | > 200
34 | SK-GT-2 (stomach, adherent) | – | – | 0.986 | > 10000 | 0.685 | 42.5
35 | SK-MEL-31 (melanoma, adherent) | – | – | 0.985 | > 10000 | 0.885 | > 200
36 | STS-0421 (soft tissue, adherent) | – | – | 0.983 | > 10000 | 0.825 | 147
37 | SUP-B8 (B-cell leukaemia, suspension) | – | – | 0.989 | > 10000 | 0.502 | 12.7
38 | TC-YIK (cervix, suspension) | – | – | 0.991 | > 10000 | 0.96 | > 200
39 | U-266 (myeloma, semi-adherent) | – | – | 0.975 | > 10000 | 0.703 | 57.9
40 | VMRC-LCD (lung adenocarcinoma, adherent) | – | – | 0.993 | > 10000 | 0.896 | 175
41 | ZR-75-30 (breast, adherent) | – | – | 0.982 | > 10000 | 0.887 | > 200

IC50 is the fitted dose that halves viability relative to control wells, and lower means more sensitive; fits outside the tested doses are given as limits. The AUC spans the tested range (256-fold, ending at the top dose) of the same fit; values near 1 show little effect. For some of these results: Where the top dose is marked as inferred, it comes from the curve model; the source does not state it.
